Among the data in the RNAGym collection of RNA variant scans (doi:10.7554/elife.90254) are self-cleavage values, retold here.

The source gives no read counts; variants with many changes may rest on few reads.

B1: LINE1-mini (parent)
chain: GGCAGAGCUCAACACAGCGUGGCAAAGUGGCUGUGGCUAGACUGCC

Variants of B1 are the subject of this data set. Briefly: self-cleavage, relative activity (ratio to wild type); higher = more cleavage; in vitro, sequencing; the parent is a self-cleaving ribozyme.
On to C13U G17A C23A, for which the self-cleavage worked out at 0.54.

For A14G C15A G21U C23G C42A, the self-cleavage amounted to 0.09.

In the case of A14G G19A U28C, the self-cleavage turned out to be 0.34.

In the case of C13U A25U C45A, the self-cleavage is 0.07.

For the variant A14G G33A G35C, the self-cleavage amounted to 0.05.

For C13U C15G U32G C46G, the self-cleavage amounted to 0.

With A14U G17U U32C A39C, the self-cleavage amounted to 0.08.

As for C13U G19C G22U U28G G40U U43A, the self-cleavage worked out at 0.03.

On to C13G U32C G36C, for which the self-cleavage turned out to be 0.09.

A14U A26G C45G: the self-cleavage is 0.07.

Take C13U A16C G30A U43A: the self-cleavage amounted to 0.04.

In the case of C13U G27C A41C, the self-cleavage is 0.01.

As for C13U C45U C46A, the self-cleavage amounted to 0.02.

Consider A14U G17U A39U G40U, for which the self-cleavage came to 0.16.

Turning to A14G G29U G36U, the self-cleavage came out at 0.09.

In the case of A14C A41U U43G, the self-cleavage came out at 0.17.

Regarding C13U G22A G30U U38A, the self-cleavage turned out to be 0.06.

With C13U G21U G36A, the self-cleavage was determined as 0.92.

With A14U G19C U32A G35A G36A A41G G44U, the self-cleavage was determined as 0.03.

Take A14U C31G U34A C45U: the self-cleavage is 0.03.

For A14C G33C C37U, the self-cleavage stood at 0.03.

A14U G22C G44A: the self-cleavage is 0.04.

For the variant C13U G17C G40A A41U, the self-cleavage amounted to 0.02.

With A14G G17A G27A C42U C46G, the self-cleavage is 0.11.

For A14G C15G C18A G22U G27C, the self-cleavage stood at 0.01.

Regarding A14U A25C C31A, the self-cleavage was 0.02.

As to C13U A14U C37G, the self-cleavage was 0.01.

Regarding C13U G21C G22U G44A, the self-cleavage came out at 0.04.

Consider A14U C31A C45U, for which the self-cleavage stood at 0.04.

As for A14U G21C U28C, the self-cleavage came to 0.4.

For C13U A16C G17A, the self-cleavage turned out to be 0.1.

As to A14G A16U C37A, the self-cleavage amounted to 0.03.

For A14C G36U A39C, the self-cleavage came out at 0.02.

As to A14U G17A A26U, the self-cleavage was found to be 0.03.

As to C13U U32A G35C, the self-cleavage is 0.06.

Turning to A14C G22U G29U, the self-cleavage was found to be 0.06.

With C13U A14U C31G, the self-cleavage worked out at 0.06.

Turning to A14U G22A C23G U34A, the self-cleavage is 0.31.

Regarding A14G A16C C23A C31U, the self-cleavage was found to be 0.01.

On to C13U C15U G19A U32G, for which the self-cleavage turned out to be 0.17.

Take C13U A16C G17A U38G: the self-cleavage was 0.01.

A14C C15A C18A G22A C31G G33C: the self-cleavage turned out to be 0.04.

Regarding C13G U20G G29U, the self-cleavage was 0.15.

In the case of A14C G22A C23U A24G, the self-cleavage came out at 0.12.

Regarding A14U G19A A25U, the self-cleavage is 0.18.

As to C13U A24U U38A, the self-cleavage came to 0.27.

On to C13U G44A C46G, for which the self-cleavage was determined as 0.11.

Consider C13U A14U C46U, for which the self-cleavage stood at 0.04.

On to A14G U28C G40C, for which the self-cleavage worked out at 0.04.

Turning to C13U U32A G35U C37U, the self-cleavage came out at 0.26.

A14G G36A G40A: the self-cleavage was determined as 0.09.

Regarding A14G U20C A26U, the self-cleavage was determined as 1.2.

A14U C15A U38A G44U: the self-cleavage came out at 0.06.

For the variant C13U A16U G35U C37U, the self-cleavage was found to be 0.04.

With A14U G17A G36C G40U, the self-cleavage turned out to be 0.07.

With A14G G21C C37U A41G, the self-cleavage was 0.03.

In the case of A14C A25G G35A, the self-cleavage was found to be 0.04.

A14U G27U G33U U38A G44C C46A: the self-cleavage is 0.06.

Turning to A14U G21A A25U G40A, the self-cleavage was determined as 0.03.

With A14C G19C A41U C42U, the self-cleavage was determined as 0.01.

Regarding A14C C18G G21C G33C, the self-cleavage worked out at 0.02.

Take C13U C15A C37A: the self-cleavage was found to be 0.09.

Take A14G G22U C23A G27U U43A C46A: the self-cleavage came out at 0.13.

For the variant C13U A14G G30C G36A C37U, the self-cleavage came to 0.03.

For the variant A14U C15A U20A C23U, the self-cleavage amounted to 0.09.

For the variant C13U A16G A41U, the self-cleavage amounted to 0.39.

Take A14G A26U C31U: the self-cleavage was 0.03.

As for C13U C18U G30C C31A, the self-cleavage is 0.21.

As for C13U U34G G40C, the self-cleavage amounted to 0.15.

With C13U C31A U34C, the self-cleavage came to 0.18.

Take A14G C23A C45G: the self-cleavage is 0.33.

Turning to A14U A41U C45U, the self-cleavage is 0.12.

Consider C13U C15A C18U G19U A39G, for which the self-cleavage is 0.42.

Consider C13U G17U U32C, for which the self-cleavage worked out at 0.06.

For the variant A14G C15G G22A G36U U38C, the self-cleavage worked out at 0.01.

For C13U A26U C45A, the self-cleavage stood at 0.07.

In the case of A14G G33C A39U, the self-cleavage came out at 0.05.

Take C13U A25U A26U G29U: the self-cleavage was determined as 0.47.

As for A14C G22U A39C, the self-cleavage stood at 0.08.

With A14U G27U C31U G40C, the self-cleavage stood at 0.09.

For A14U C42U C46A, the self-cleavage was 0.04.

On to A14C U32G U38A G44U, for which the self-cleavage came to 0.03.

On to A14G G19C U38C, for which the self-cleavage is 0.06.

For C13U C15A C18A G21U G27A G36U U38C C42U, the self-cleavage is 0.02.

A14G U34C C45U: the self-cleavage was determined as 0.58.

Take A14U C15A G29A: the self-cleavage amounted to 0.03.

Consider C13U C15A G22A U34G, for which the self-cleavage was 0.08.

Consider A14U A16G C31U C37A, for which the self-cleavage turned out to be 0.01.

Regarding A14U G29A C42A, the self-cleavage is 0.03.

In the case of A14U C18U G19C, the self-cleavage was determined as 0.65.

A14G G19C G27A C37U: the self-cleavage was 0.01.

For C13U C18U A24U A26G U34A C37A, the self-cleavage was 0.03.

On to C13U A24C U28C G29C C37A U38A G44C C46A, for which the self-cleavage was 0.02.

C13U G19A G35U G44C: the self-cleavage is 0.1.

As for C13U U28G U34G, the self-cleavage stood at 0.01.

On to A14G C23A G30A U43A, for which the self-cleavage was determined as 0.05.

C13U G17A G22A: the self-cleavage is 0.

For the variant A14U G21U U32G U34C, the self-cleavage stood at 0.04.

Turning to C13G U20G A24G G35A C42U, the self-cleavage was 0.05.

Take A14G G21C G29C: the self-cleavage was 0.11.

In the case of A14U A24C G29A C31U A41U, the self-cleavage turned out to be 0.61.

Take C13U G19A G27C: the self-cleavage amounted to 0.18.

On to A14U A24U G30C, for which the self-cleavage is 0.1.

As for C13U A25G U38C, the self-cleavage was 0.03.

A14G G27A G35A U38A G40A: the self-cleavage came out at 0.1.

With C13U G22A G30U U34G U43C, the self-cleavage stood at 0.02.

For A14U G17C G27U G29C, the self-cleavage was determined as 0.05.

For the variant A14U G27U U28G C31U, the self-cleavage amounted to 0.02.

As to A14U G22U A25G, the self-cleavage was 0.

Consider A14C G35A G44U, for which the self-cleavage worked out at 0.12.

Turning to C13U G22U G30A, the self-cleavage amounted to 0.36.

Turning to A14U C15G U34A, the self-cleavage amounted to 0.03.

Consider A14U G19C U20G U34C, for which the self-cleavage came out at 0.23.

Regarding A14U G22C A26C G30C C37G, the self-cleavage amounted to 0.13.

With C13U G21A C23G A25U, the self-cleavage is 0.14.

For the variant A14U C18U U32C G36U, the self-cleavage stood at 0.09.

In the case of A14C C18G C46A, the self-cleavage was 0.11.

For A14U C18G U34G G40A, the self-cleavage came out at 0.03.

For A14U C23U G27A A39U, the self-cleavage is 0.61.

As for A14C A26G G29U U32G, the self-cleavage was 0.02.

On to A14C G27C U28C A41U, for which the self-cleavage was 0.03.

On to A14U G33C C45G, for which the self-cleavage worked out at 0.01.

With A14G G29A G30A U32C, the self-cleavage came to 0.04.

Take C13U C18G U43A: the self-cleavage stood at 0.02.

On to C13G U20C C23U C37U, for which the self-cleavage turned out to be 0.01.

For the variant C13U A16U G35U, the self-cleavage is 0.3.

For the variant A14C A24G C45U, the self-cleavage came to 0.03.

As for A14G U38G C45A, the self-cleavage is 0.05.

Regarding A14C G29C U38A, the self-cleavage worked out at 0.04.

A14C A39G C45A: the self-cleavage is 0.03.

Turning to A14C C15G U28A G30A, the self-cleavage was 0.01.

Regarding A14G C18G G21U U32C, the self-cleavage was determined as 0.04.

As to A14U A24U G29U C31A C45G, the self-cleavage came out at 0.04.

Regarding C13U C23G A24U A41C, the self-cleavage was 0.02.

A14C G22U G33C: the self-cleavage came out at 0.07.

Turning to C13U G21U G33U U38C, the self-cleavage was determined as 0.02.

Consider A14C G30C C37U, for which the self-cleavage was determined as 0.17.

As to A14G C31G G36A, the self-cleavage came out at 0.06.

In the case of C13U G30A U38A, the self-cleavage was found to be 0.17.

On to A14C G21A U28G G35C G36U, for which the self-cleavage is 0.08.

Consider C13U G21U C45G, for which the self-cleavage stood at 0.07.

For the variant A14U G19C U28A G36A, the self-cleavage amounted to 0.

C13U G19A G21U A26G: the self-cleavage was 0.11.

As to C13U U20C U34A C37A, the self-cleavage worked out at 0.05.

On to A14U G22A G27U C37G C42A, for which the self-cleavage stood at 0.07.

For A14G G17U G21U G22C G35C, the self-cleavage came out at 0.02.

A14C C18U U43A C45U: the self-cleavage is 0.03.

For the variant A14U G17A C18A G44C, the self-cleavage came out at 0.05.

Take A14U A24U U38G C45G: the self-cleavage was 0.03.

Consider C13U U28C U32G, for which the self-cleavage turned out to be 0.01.

As for A14G G17C U20G, the self-cleavage came to 0.03.

For C13U A26C G29U C31U G33C, the self-cleavage was found to be 0.05.

As to A14C G27C U28A G29C U43G, the self-cleavage came to 0.

In the case of A14C G21U C23G C37U, the self-cleavage stood at 0.01.

On to C13U A14U U28A U34C A41U, for which the self-cleavage is 0.15.

As to C13U U20A G21A, the self-cleavage is 0.11.

For the variant A14C C23G A39C, the self-cleavage came to 0.07.

For A14U G29A C46A, the self-cleavage was found to be 0.6.

In the case of C13U G35C U43A C45U, the self-cleavage was 0.04.

For the variant A14C G21C C31A C37G, the self-cleavage is 0.01.

Regarding A14U G29C A41U, the self-cleavage is 0.11.

On to A14U C18G G35A, for which the self-cleavage worked out at 0.03.

For the variant A14C U20A G35C U43G, the self-cleavage is 0.23.

Regarding A14U G21C G22C, the self-cleavage was 0.03.

C13U G40C C45U: the self-cleavage was found to be 0.02.

Consider A14G G36A A39U, for which the self-cleavage worked out at 0.07.

On to A14U A39U C42A, for which the self-cleavage was 0.14.
